In paper PMC12603070, “A high-throughput screening approach to discover potential colorectal cancer chemotherapeutics: repurposing drugs to identify novel disruptors of 14-3-3 proteins” (Cell Death & Disease, 2025) one finds binding data, which are given here for 1 substance.

By UniProt entry, the sequences of proteins in these tests, tags left out.
UniProt P63104: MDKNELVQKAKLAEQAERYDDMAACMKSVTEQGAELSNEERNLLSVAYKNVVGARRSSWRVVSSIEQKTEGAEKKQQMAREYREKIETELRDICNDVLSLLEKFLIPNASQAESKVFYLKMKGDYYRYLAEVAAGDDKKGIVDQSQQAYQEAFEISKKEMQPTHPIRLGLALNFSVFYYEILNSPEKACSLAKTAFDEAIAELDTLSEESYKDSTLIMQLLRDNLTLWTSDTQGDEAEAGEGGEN

Residue numbers refer to the chain shown, from its start. These are yes or no findings as the source states them, for the method shown. Binding seen in cells or lysates may run through a third protein. Some results given as binding are weak or reduced against the parent protein; the word gives no strength.

The target of test [1] is T1, BAD-112-136F-mC (murine) (UniProt Q61337).
T1 sequence: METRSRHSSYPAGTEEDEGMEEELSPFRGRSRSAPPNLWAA
The test is described as follows: co-IP; lysate (RIPA buffer) of NIH-3T3 cells expressing the BRET sensor, treated with DMSO or FTY-720 (20 μM, 3 h); mCitrine precipitated with anti-GFP antibody and protein A/G magnetic beads; blots with anti-GFP and anti-Renilla luciferase.

Test [2] addresses T2, BAD-112-136F-AA-mC (murine) (UniProt Q61337).
T2 sequence: T1 sequence with S9A, S33A
The test is described as follows: FRET or BRET; BRET in living NIH-3T3 cells co-transfected with separate plasmids for the Rluc8 donor and the mCitrine acceptor; compared with mCitrine alone.

Test [3] concerns the target T3, BAD-112-136F-136A-mC (murine) (UniProt Q61337).
T3 sequence: T1 sequence with S33A
The description is as above.

The target of test [4] is T4, BAD-112-136F-112A-mC (murine) (UniProt Q61337).
T4 sequence: T1 sequence with S9A
The description is as above.

Test [5] deals with T1, BAD-112-136F-mC (murine). Described as above.

Turning to “14-3-3ζ-Rluc8 (from UniProt P63104 1-245)”, the binding result is “binds” with BAD-112-136F-mC (murine) [1]; “no binding” in test [2]; “no binding” in test [3]; “binds” in test [4]; “binds” in the test with BAD-112-136F-mC (murine) [5].
